Measurements reported in ChEMBL document CHEMBL5308541, “MAIP: An Open-Source Tool to Enrich High-Throughput Screening Output and Identify Novel, Druglike Molecules with Antimalarial Activity” (ACS Med Chem Lett, 2023).
Among all 150,000 compounds or so, about 540 (0.36%) showed an effect of 50% or more. The list shows a part of the results.

System: Plasmodium falciparum
Experiment: Primary screen in NF54 nanoGlo assay, in single point, at 2uM, 72h; a lower Z score goes with more inhibition
Format: functional, Erythrocyte
Settings: timepoint 72 hour

| Structure (SMILES) | % Inhibition [%] | Z score |
| --- | --- | --- |
| CCOC(C)C(=O)N1CCC2(CC1)CC2C(=O)O (stereo not given) | -9 | 1.35 |
| CCN(CC)CC1CCCCC1NC(C)C(=O)N1CCN(c2ncccn2)CC1 (stereo not given) | -3 | 0.52 |
| Cc1cc(C(=O)NC(C)C(O)c2ccc(Br)cc2)c2ccccc2n1 (stereo not given) | 0 | -0.04 |
| CN(CCNC(=O)c1nc(C2CC2)n2ccccc12)C(=O)OC(C)(C)C | -4 | 0.86 |
| CCCc1cc(NCC2(N3CCN(C)CC3)CCCCC2)n2nccc2n1 | -3 | 0.64 |
| Fc1ccc(N2CCC(N[C@@H]3COC4(CCNCC4)C3)CC2)cc1F | 23 | -4.05 |
| CC(=O)Nc1ccc(CNC(=O)c2scnc2C(F)(F)F)cc1 | -11 | 2.44 |
| CC(C)(C)c1nnc2ccc(N3CCCn4c(cc5ccccc54)C3)nn12 | -6 | 0.9 |
| Cc1cc(N)n(-c2cc(NC3CCN(Cc4ccc(Cl)cc4)CC3)ncn2)n1 | -6 | 1.06 |
| Fc1ccc2c(CCNc3ncnc4oncc34)c[nH]c2c1 | -5 | 1.07 |
| O=C(c1ccc2ncccc2c1)N1CCN([C@H]2CCCN(Cc3ccccc3)C2=O)CC1 | 2 | -0.34 |
| NC(=O)c1ccc(-c2nc3c(c(NCCc4c[nH]cn4)n2)CCNC3)cc1 | -3 | 0.66 |
| O=C(c1cc(Nc2ccc(F)c(Cl)c2)c2ccccc2n1)N1CCCCC1 | 1 | -0.19 |
| C[C@@H]1COCCN1c1nc(NC2CC2)nc(N2CCOC[C@H]2C)n1 | 7 | -1.29 |
| C[C@H]1CCCN1C(=O)c1cccc(-c2ccc3ncnc(NCCO)c3c2)c1 | -7 | 1.47 |
| CN1CCN(C[C@H]2CN(c3nc(-c4ccsc4)nc4ccccc34)CCO2)CC1 | -2 | 0.38 |
| CC(C)C1(CNC(=O)c2c[nH]nc2-c2ccsc2)CC1 | -1 | 0.22 |
| Cc1cccc(C)c1[C@H](C)NC(=O)Nc1ccn(C(C)C)n1 | -4 | 0.68 |
| Cc1cccc2c(CCC(=O)N[C@H]3CCCN(CC(F)(F)F)C3=O)c[nH]c12 | -3 | 0.45 |
| COC1CCCC12CCCN(CCCN1CCN(c3cccc(Cl)c3)CC1)C2 (stereo not given) | 0 | 0.06 |
| CN(c1ccccc1)c1ccc(C(=O)N[C@H]2CCN(CCN3CCOCC3)C2)cn1 | -11 | 1.66 |
| Cc1noc(C)c1CO[C@H]1CCN(c2cc(NCC3CC3)ncn2)C1 | -3 | 0.55 |

| Structure (SMILES) | % Inhibition [%] | Z score |
| --- | --- | --- |
| Nc1nc2c(c(NCCc3csc(-c4cnccn4)n3)n1)CCNC2 | -4 | 0.59 |
| Nc1ccc(-c2cc(OC(F)(F)F)ccc2O)cn1 | 36 | -6.32 |
| CC1(c2ccccc2)CCN(c2ncccc2S(C)(=O)=O)CC1 | -3 | 0.51 |
| Nc1ccc2c(N3CCC[C@H](CN4CCOCC4)C3)ncnc2n1 | 5 | -0.82 |
| COCCCn1ccc(Nc2nc3ccccc3o2)n1 | 1 | -0.27 |
| O=C(NC1CCCCCC1C(=O)O)c1csc(C2CC2)n1 (stereo not given) | -11 | 2.17 |
| O=C(NCCN1CC[C@@H](O)C1)c1ccccc1-c1ccncc1 | -3 | 0.6 |
| Cc1nc(NCCNc2cnccn2)c2cnn(C)c2n1 | -5 | 0.71 |
| OC1(c2cccc(C(F)(F)F)c2)CCN(C[C@H]2CCCNC2)CC1 | 1 | -0.2 |
| COc1nc(C)cc(C)c1CNC(=O)N1CCCC2OC(c3ccccc3)CC21 (stereo not given) | -8 | 1.48 |
| Cc1cc(NC(=O)N2CCn3ccnc32)cnc1C(F)F | -7 | 1 |
| O=C(NCc1ccc(OC(F)(F)F)cc1)N(CCN1CCCC1)[C@H]1CCCNC1 | 39 | -6.86 |
| c1coc(CN2CCC(N3CCC(Oc4ccncc4)CC3)CC2)c1 | -2 | 0.54 |
| CC(C)N1CCN(c2cccc(Nc3ncccn3)c2)CC1 | 5 | -1.03 |
| COc1ccc2cc1O[C@@H]1CN[C@@H](C1)C(=O)NCCCCN(Cc1ccnc3ccccc13)CCCNC2=O | -3 | 0.53 |
| Cc1cnc([C@H](C)NC(=O)Nc2cccc3c2OCC(=O)N3)s1 | -16 | 2.43 |
| C[C@@H](c1ccc(-c2ccc(CN3CCN(C)CC3)cn2)cc1)N1CCCCC1 | 2 | -0.43 |
| C[C@H]1COCCN1CC(=O)N1CC=C(c2c[nH]c3ccccc23)CC1 | 4 | -0.62 |
| CN1CCC(OCCCNC(=O)[C@H]2CC(=O)N(C(C)(C)C)C2)CC1 | -1 | 0.19 |
| CCN(CC)c1cc(-c2cc(NC)nc3[nH]ccc23)nc(N)n1 | -10 | 1.49 |
| COc1ccc(NC(=O)c2ccc(Nc3cc(-c4ccccc4)c4cc(Cl)ccc4n3)cc2)cc1 | -3 | 0.56 |
| Cc1c(CN[C@H]2CCCN(Cc3cccc(O)c3)C2)oc2ccccc12 | -3 | 0.47 |

| Structure (SMILES) | % Inhibition [%] | Z score |
| --- | --- | --- |
| Cc1cccnc1NCCNCc1cnc(-c2ccc3ccccc3c2)nc1 | -5 | 0.8 |
| Cc1ccc(CNC(=O)c2cccc(-c3cc(NC4CCCCC4)ncn3)c2)o1 | -5 | 0.95 |
| CC(C)N1C[C@@H](CN2CCC(N3CCC(O)CC3)CC2)CCC1=O | -5 | 0.93 |
| CN1CCN(c2ncc(CNc3cnc4ccccc4c3)cn2)CC1 | -8 | 1.67 |
| CC1CCC(C)N1CCN1CCN(C(=O)CCC2CCNCC2)CC1 (stereo not given) | -6 | 1.26 |
| O=C(c1cc2ccc(OC(F)(F)F)cc2[nH]1)N1CCC(OC2CCOCC2)CC1 | -10 | 1.7 |
| N#CCC1CCN(C(=O)c2cccc(Br)c2Cl)CC1 | -2 | 0.48 |
| CCN1CCN(C2CCN(c3nc(N)nc(C4CC4)n3)CC2)C1=O | -1 | 0.22 |
| O=C(NC1(c2cc(F)cc(F)c2)CC1)[C@H]1CC12CC2 | -7 | 1.03 |
| CC(C)N1CCN(CCNC(=O)N2CCC(Oc3ccncc3)CC2)CC1 | 0 | -0.02 |
| Fc1ccc(C2CCNCC2NCc2ccc3cn[nH]c3c2)cc1 (stereo not given) | -2 | 0.24 |
| CC(C)(C)OC(=O)N1CCN(CCCNc2ccncc2C(N)=O)CC1 | 7 | -1.6 |
| Cc1cc(NCc2cc(Cl)c3c(c2)OCCO3)nc(N)n1 | 3 | -0.53 |
| C[C@@H](c1ccncc1)N1CCC(Nc2ncc(F)cn2)CC1 | -3 | 0.5 |
| CCOC1CC(Nc2cc(-n3nc(C)cc3N)ncn2)C12CCCC2 (stereo not given) | -7 | 1.17 |
| CC(C)(C)n1cc(-c2ccc3sc(CCC(=O)O)nc3c2)cn1 | -6 | 0.98 |
| CCCn1ncc(-c2ccnc(NCc3coc(-c4ccccc4)n3)n2)c1C | -11 | 1.88 |
| Cc1csc2ncnc(Nc3ccn(CCN4CCOCC4)n3)c12 | -5 | 1.01 |
| NC1=Nc2nc(-c3ccccc3)nn2CC1 | 0 | 0.07 |
| CC(C)CN1CCC(CNc2nncc(-c3cccc(Cl)c3)n2)CC1 | 7 | -1.21 |
| CN(CCCc1cc(-c2ccc(F)cc2)n[nH]1)CC1CCNCC1 | 24 | -5.17 |
| C[C@@H](c1ccc(F)cc1F)N1CCN(c2nc(N)c3cnn(C)c3n2)CC1 | -4 | 0.62 |

| Structure (SMILES) | % Inhibition [%] | Z score |
| --- | --- | --- |
| Cc1cc(C)n(Cc2cccc(-c3noc([C@H]4COC(=O)N4)n3)c2)n1 | -6 | 0.97 |
| CN(c1cccc2ncccc12)S(=O)(=O)c1cc(Cl)ccc1OCC(N)=O | -8 | 1.23 |
| CC[C@@H]1C[C@H]1NS(=O)(=O)c1cnc2cccnn12 | 6 | -1.29 |
| CN(C)c1ccccc1-c1ccc(F)c2[nH]ccc12 | 3 | -0.62 |
| CN1CCC(OCCCNc2nccc3ccccc23)CC1 | 5 | -0.94 |
| COc1cccc(Oc2ccc(NC(=O)c3cc(-c4ccccn4)[nH]n3)cn2)c1 | 14 | -3.06 |
| CC(C)N1CCN(CCCN2CC[C@H](c3ccncc3)C2)CC1 | -9 | 1.62 |
| NCCOCCOCCNCCN1CCN(CCOCCOCCN)CC1 | -9 | 1.32 |
| NC(=O)C1CCN(CCCCNc2nccc(C(F)(F)F)n2)CC1 | -9 | 1.38 |
| O=C1C[C@H](CNc2cc(N3CCC(O)CC3)ncn2)CN1C1CCCC1 | -2 | 0.39 |
| Cc1cc(C)c2nc(N3CCN(C)CC3)cc(C)c2c1 | -1 | 0.2 |
| c1ccc(-n2ncc3c(Nc4ccc5c(c4)OCO5)nc(NC4CCCCCC4)nc32)cc1 | -10 | 1.5 |
| O=C(N[C@H](CO)Cc1c[nH]c2ccccc12)c1ccnc(OCC(F)F)c1 | -3 | 0.44 |
| Nc1nc(NC2COCCC2Oc2ccccn2)c2c[nH]nc2n1 (stereo not given) | -12 | 2.05 |
| Oc1cccc(Nc2cccc(C(F)(F)F)c2)c1 | -1 | 0.1 |
| COC(=O)[C@@H](C)CNC(=O)Nc1cccnc1-c1cnn(C)c1 | -6 | 0.89 |
| Nc1nnc(Nc2cccc(Cl)c2)s1 | -3 | 0.7 |
| Cn1c(-c2ccccc2)c(C(=O)C(=O)Nc2ccc3c(c2)COc2ccccc2O3)c2ccccc21 | 6 | -1.05 |
| CC(CNC1CC2(CCC2)Oc2ccccc21)CN1CCN(C)CC1 (stereo not given) | 3 | -0.45 |
